Assay results published in PubChem BioAssay AID445 (National Center for Advancing Translational Sciences (NCATS), 2006).
About 40 (0.04%) of roughly 110,000 compounds were called active. This list was built around the results that the source calls inconclusive (neither active nor inactive); the mix of calls is not that of the screen. Calls come from the whole dose curve; as a rule, active = well fitted curve in the direction sought with a large enough effect in the signal ratio (not every such curve was filed as active); inconclusive = small, poorly fitted or top-dose-only effect, or a change in a side signal; inactive = flat fitted curve, though single readings scatter; the % refers to the signal ratio. A potency beside an inconclusive call is a rough fit, not a confirmed value.

test: IkB Signaling; settings: ABC-DLBCL IkBa-CBG/CBR dual luciferase ratio (green luciferase fused to IkBa over red control in OCI-Ly3 lymphoma cells), 4 h; IkBa stabilization activation: at 57.1 µM (top of the series), scaled: untreated 0%, proteasome inhibitor 100% unless noted;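 for IkBa stabilization activation: 0% = basal untreated cells and 100% = reference inhibitor full response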
In short: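 In this assay, an IκBα–CBG68 fusion accumulates when IKK-driven degradation is blocked; native CBR normalizes for cell number. OCI-Ly3 cells were treated 4 h with compound and doxycycline, then green and red light read after Chroma-Glo addition.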
Potency is the fitted concentration of half-maximal effect.

| Compound | IkBa stabilization activation | Potency |
| --- | --- | --- |
| C[C@@H]1C[C@H]2[C@@H]3CCC4=CC(=O)C=C[C@]4(C)[C@@]3(F)[C@@H](O)C[C@]2(C)[C@@]1(O)C(=O)CO | inconclusive: 11.5% [signal activator] | – |
| COc1ccc(OC)c(NC(=O)CN2C(=O)CC(c3ccco3)Sc3ccccc32)c1 (stereo unspecified) | inconclusive: 1.4% [signal inhibitor] | – |
| Cc1ccc(N2CC(c3nnc(Cc4ccc(Cl)cc4)o3)CC2=O)cc1 (stereo unspecified) | inconclusive: 12.2% [signal inhibitor] | – |
| CC(C)[C@@H]1O[C@H](/C=C\c2ccccc2)OCC1(C)C | inactive: -1.96% [at 11.4 µM, scaled: untreated 0%, proteasome inhibitor 100%] | – |
| COC(=O)c1ccccc1NC(=O)CN1CCC(n2nnc3cc(F)ccc32)CC1 | – | inconclusive: 5.01 µM [signal inhibitor, partial curve] |
| CCc1ccccc1NC(=O)CSc1nnc(-c2cc(OC)c(OC)c(OC)c2)o1 | inactive | – |
| COc1ccc(N2CCN(CC(O)COc3ccccc3C(C)(C)C)CC2)cc1 (stereo unspecified) | inconclusive: -0.77% [signal inhibitor] | – |
| Cc1ccc(C(=O)Nc2cccc(C(=O)OCc3cc(=O)n4c5c(sc4n3)CCCC5)c2)cc1 | – | inconclusive: 10 µM [signal inhibitor, partial curve] |
| Cc1ccc(NC(=O)C2CCCN(S(=O)(=O)c3cccc4cccnc34)C2)cc1Cl (stereo unspecified) | inconclusive: 2.46% [signal inhibitor] | – |
| Cc1ccc2[nH]cc(C(c3ccccc3)c3cccs3)c2c1 (stereo unspecified) | inconclusive: -0.071% [signal inhibitor] | – |
| CSc1oc(-c2ccc(F)cc2)nc1S(=O)(=O)c1ccccc1 | inactive | – |
| Cc1ccc(-c2nc(-c3nccc4ccccc34)oc2-c2ccccc2)cc1 | – | inconclusive: 3.98 µM [signal inhibitor, partial curve] |
| CCOc1ccc(NC(=O)c2cccc3c2C(=O)N(Cc2cccnc2)C3)cc1 | inactive | – |
| Cn1nc(C(=O)N2CCN(c3ccccc3)CC2)c2c1-c1ccccc1SC2 | inactive | – |
| CCCCOc1ccc(CNC(=O)Cn2ncn3c(cc4cc(F)ccc43)c2=O)cc1 | inactive | – |
| CCCCN(CC)C(=O)Cn1c(=O)n(-c2ccc(OCC)cc2)c(=O)c2c3c(sc21)CCC3 | inconclusive: 2.71% [signal inhibitor] | – |
| Cc1ccccc1NC(=O)c1ccccc1O | inconclusive: 18% [signal inhibitor] | – |
| CCC(C)(C)n1nnnc1C(C(C)C)N1CCSCC1 (stereo unspecified) | inactive | – |
| Cc1ccc(C2CCN(C(=O)c3cnn(-c4ccccc4Cl)c3C3CCN(C(=O)OC(C)(C)C)CC3)C2)cc1 (stereo unspecified) | inconclusive: -3.19% [signal inhibitor] | – |
| O=C(Nc1cccc(C(=O)OCc2cc(=O)n3c4c(sc3n2)CCCC4)c1)c1ccccc1 | – | inconclusive: 2 µM [signal inhibitor] |
| Cc1cccc(NC(=O)C(NS(=O)(=O)c2ccc3c(c2)oc(=O)n3C)C(C)C)c1 (stereo unspecified) | inactive | – |
| O=C(c1nc2ccccc2s1)N1CCN(c2ccccn2)CC1 | inconclusive: 6.87% [signal inhibitor] | – |
| O=c1[nH]c(-c2cccs2)nc2ccccc12 | inconclusive: 0.693% [signal inhibitor] | – |
| Cc1nc2ccccc2c(=O)n1/N=C/c1c(O)ccc2oc3c(c12)CCCC3 | inactive | – |

| Compound | IkBa stabilization activation | Potency |
| --- | --- | --- |
| O=c1c2c3nc4ccccc4nc3n(-c3ccc4c(c3)OCCO4)c2ncn1CC1CCCO1 (stereo unspecified) | inactive | – |
| CCOc1ccc(S(=O)(=O)Nc2nc3ccccc3nc2Nc2ccc(OC)cc2)cc1 | – | inconclusive: 25.1 µM [signal inhibitor, partial curve] |
| CC1Cc2nc(SCC(=O)NCc3ccco3)n(Cc3ccccc3)c(=O)c2S1 (stereo unspecified) | inactive | – |
| CCc1ccc(NC(=O)Cn2c(=O)n(Cc3ccco3)c(=O)c3cccnc32)cc1 | inactive | – |
| COc1ccc(-c2csc(NCc3ccco3)n2)cc1 | inactive | – |
| COc1ccc(NC(=O)CCc2nnc3n(CC(C)C)c(=O)c4ccccc4n23)cc1 | inconclusive: -1.07% [signal inhibitor] | – |
| CCOC(=O)Cn1nnnc1C(CC)N(Cc1cc2ccc(C)cc2[nH]c1=O)C1CCCC1 (stereo unspecified) | inactive | – |
| COCC(C)NC(=O)c1cc(-c2cccc(OC)c2)on1 (stereo unspecified) | – | inconclusive: 12.6 µM [signal inhibitor, partial curve] |
| CC(=C1C2C=CC1C1C(=O)NC(=O)C21)c1ccccc1 (stereo unspecified) | inactive | – |
| CCc1ccccc1NC(=O)C1CCCN(c2ncnc3onc(C)c23)C1 (stereo unspecified) | inconclusive: 4.25% [signal inhibitor] | – |
| Cc1ccc(C2c3[nH]c4ccccc4c3CCN2C(=O)CCC2CCCC2)cc1 (stereo unspecified) | inactive | – |
| COc1cc2c(cc1OC)-c1cc(NC3CCCC3)nc(=O)n1CC2 | inactive | – |
| O=S(=O)(Cc1nc2ccccc2s1)c1ccccc1 | inconclusive: 2.36% [signal inhibitor] | – |
| Cc1ccc(Cl)cc1-n1ncc2c(Nc3cccc(C)c3C)ncnc21 | inconclusive: 0.716% [signal inhibitor] | – |
| O=C(c1ccc(CSc2nc3ccncc3n2Cc2ccccc2)cc1)N1CCCCCC1 | inconclusive: 0.861% [signal inhibitor] | – |
| Clc1ccccc1-c1nccc(-n2ccnc2)n1 | inactive: -2.23% [at 11.4 µM, scaled: untreated 0%, proteasome inhibitor 100%] | – |
| Cc1cnn(C(=S)NCc2ccc(Cl)cc2)c1 | inconclusive: 3.33% [signal inhibitor] | – |
| CCc1ccccc1NC(=O)CCc1c(C)nn(-c2ccc(N3CCOCC3)nn2)c1C | inactive | – |
| CCc1nn2c(=O)cc(COC(=O)c3ccccc3NC(=O)C3CCCCC3)nc2s1 | inconclusive: 0.374% [signal inhibitor] | – |
| CCCS(=O)(=O)NCCc1csc(-c2cccnc2)n1 | inactive | – |
| CCc1ccc(CNCc2c(C(=O)O)n(Cc3ccc(F)cc3Cl)c3cc(OC)ccc23)cc1 | inconclusive: 0.0973% [signal inhibitor] | – |
| Cc1cccc(CNc2ncnc3ccc(-c4ccc(C(=O)N(C)C)cc4)cc23)c1 | inactive: 4.48% [at 11.4 µM, scaled: untreated 0%, proteasome inhibitor 100%] | – |
| COc1cc2ccccc2cc1C(=O)N1CCN(c2nc3ccc(F)cc3s2)CC1 | inconclusive: 1.53% [signal inhibitor] | – |
| c1ccc2cc(NCNc3ccc4ccccc4c3)ccc2c1 | inactive: 6.63% [at 11.4 µM, scaled: untreated 0%, proteasome inhibitor 100%] | – |

| Compound | IkBa stabilization activation | Potency |
| --- | --- | --- |
| CCc1ccc(N/C(SC)=C(/C#N)C(N)=O)cc1 | inactive | – |
| COc1cc(CCC(=O)NCc2ccc3c(c2)CCN3C(=O)c2ccc(F)cc2)cc(OC)c1OC | inconclusive: -1.99% [signal inhibitor] | – |
| CCOC(=O)c1ccc(N2C(=O)C3C(C2=O)C(C(=O)c2ccc(Cl)cc2)N2CCCC32)cc1 (stereo unspecified) | inconclusive: 9.65% [signal inhibitor] | – |
| CSc1nnc2c3ccccc3n(Cc3ccccc3)c2n1 | inactive | – |
| CSC1CCCCC1(O)CSc1nc2ccccc2o1 (stereo unspecified) | inconclusive: 2.69% [signal inhibitor] | – |
| CCOC(=O)c1c(C)n(C)c2ccc(OCC(O)Cn3c(C)nc4ccccc43)cc12 (stereo unspecified) | inconclusive: 9.11% [signal inhibitor] | – |
| CSc1ccccc1NC(=O)COc1ccc(S(=O)(=O)N2CCCC2)cc1 | inconclusive: 4.09% [signal inhibitor] | – |
| Cc1cccc(-n2ncc3c(N4CCN(c5ccccc5)CC4)ncnc32)c1 | inactive | – |
| CC(=O)c1ccc(NC(=O)c2ccc(-c3nc(CSc4ccccc4)c(C)o3)cc2)cc1 | inconclusive: -1.6% [signal inhibitor] | – |
| Cn1c(=O)c2c(nc(Br)n2CCCc2ccccc2)n(C)c1=O | inconclusive: 4.84% [signal inhibitor] | – |
| CSc1ccc(-c2nc(CSCC(=O)N3CCOCC3)c(C)o2)cc1 | inconclusive: -1.4% [signal inhibitor] | – |
| CC(=O)NCc1ccc(C(=O)CSc2nnc(-c3ccncc3)n2Cc2ccccc2)o1 | inactive | – |
| Fc1ccc(-c2noc3ncnc(NCC4CCN(Cc5ccc(Cl)cc5)CC4)c23)cc1 | inconclusive: -2.19% [signal inhibitor] | – |
| O=c1c2ccccc2oc2nc(-c3ccco3)n(Cc3ccccc3)c(=O)c12 | inactive | – |
| CCN1CCN(S(=O)(=O)c2cc(OCC(=O)NC3CCCCC3)c(C)cc2Cl)CC1 | inconclusive: 4% [signal inhibitor] | – |
| COc1cc(OC)cc(-c2nnc(SCC(=O)N(Cc3ccccc3)C(C)(C)C)o2)c1 | inconclusive: 0.91% [signal inhibitor] | – |
| COc1cc(NC(=O)c2cc(C)nc3c2c(C)nn3-c2ccccc2Cl)cc(OC)c1 | inconclusive: 1.92% [signal inhibitor] | – |
| Cc1ccc(C(=O)Nc2ccc(S(=O)(=O)N3CCc4ccccc4C3)cc2)o1 | inconclusive: 2.93% [signal inhibitor] | – |
| Cc1cc(C)c2nc(N3CCC(C(=O)N4CCCC4)CC3)sc2c1 | inconclusive: 1.99% [signal inhibitor] | – |
| Cc1ccc2cc3c(N)nn(C(=O)c4cccc(F)c4)c3nc2c1 | inconclusive: 5.44% [signal inhibitor] | – |
| COc1ccc(CCNC(=O)c2cnc3sc(N4CCCC4)nn3c2=O)cc1OC | inconclusive: -0.879% [signal inhibitor] | – |
| CSCCC(NS(=O)(=O)c1ccc2c(c1)oc(=O)n2C)C(=O)N1CCN(c2cccc(Cl)c2)CC1 (stereo unspecified) | inconclusive: -0.554% [signal inhibitor] | – |
| Cc1ccc(CN(Cc2ccco2)C(=O)COc2ccc(Cl)cc2)o1 | inconclusive: 1.7% [signal inhibitor] | – |
